{"source": "ChEMBL document CHEMBL4888484", "about": "“Replenishing the malaria drug discovery pipeline: Screening and hit evaluation of the MMV Hit Generation Library 1 (HGL1) against asexual blood stage Plasmodium falciparum ,using a nano luciferase reporter read-out” (2022)", "note": "Among all 150,000 compounds or so, about 540 (0.36%) showed an effect of 50% or more. The list shows a part of the results."}
{"system": "Plasmodium falciparum", "test": "Primary screen in NF54 nanoGlo assay, in single point, at 2uM, 72h; a lower Z score goes with more inhibition", "format": "functional, Erythrocyte", "settings": "timepoint 72 hour", "units": {"% Inhibition": "%"}}
{"compound": "COc1ccccc1CNC(=O)CN1N=C(c2ccccc2F)c2cc(Cl)ccc2S1(=O)=O", "% Inhibition": -16, "Z score": 1.5}
{"compound": "O=C1NCCN1C(=O)NCC(c1ccco1)c1ccco1", "% Inhibition": 10, "Z score": -1.28}
{"compound": "O=C(O)c1cc(Cc2ccc(NC(=O)C(c3ccccc3)c3ccccc3)c(C(=O)O)c2)ccc1NC(=O)C(c1ccccc1)c1ccccc1", "% Inhibition": -1, "Z score": 0.18}
{"compound": "Cc1cnc(C(=O)NC[C@H]2CCCN(c3ncnc4[nH]ncc34)C2)cn1", "% Inhibition": -14, "Z score": 1.54}
{"compound": "COc1ccccc1CS(=O)(=O)CCc1cn(C)nn1", "% Inhibition": 0, "Z score": -0.04}
{"compound": "CC(C)n1[nH]c(=O)c2c1NC(=O)C[C@@H]2c1ccc2ncccc2c1", "% Inhibition": 7, "Z score": -0.88}
{"compound": "Cc1ccc(CC(=O)Nc2nc(C)no2)cc1", "% Inhibition": -19, "Z score": 1.96}
{"compound": "CC[C@@H](C(=O)N1Cc2cnc(CC(C)C)nc2C1)c1ccccc1", "% Inhibition": -17, "Z score": 1.67}
{"compound": "COc1ccc(C(=O)c2ccccc2C(=O)Nc2cn[nH]c2)cc1", "% Inhibition": -8, "Z score": 1.57}
{"compound": "Cc1nc(C(C)(C)NCCc2scnc2C)sc1C", "% Inhibition": -2, "Z score": 0.27}
{"compound": "Cc1nc(C(=O)N2CC(NC(=O)C3CCC3)C2)ccc1C#N", "% Inhibition": -10, "Z score": 1.41}
{"compound": "O=C(Cn1cnc2ccccc2c1=O)N1CCN(C(=O)c2cc3n(n2)CCCC3)CC1", "% Inhibition": -7, "Z score": 1.1}
{"compound": "O[C@H]1CCCc2[nH]nc(-c3ccccc3)c21", "% Inhibition": -6, "Z score": 0.9}
{"compound": "CCOC(=O)CCN(Cc1cccnc1)Cn1nc(Cc2ccc(OC)cc2)oc1=S", "% Inhibition": -4, "Z score": 0.63}
{"compound": "CCNC(=O)COc1ccc2c(c1)[C@H](c1cccc(C)c1)N(C(=O)c1ccco1)CC2", "% Inhibition": 2, "Z score": -0.19}
{"compound": "O=C(c1cc(=O)[nH]c2ccccc12)N1C[C@H]2C[C@@H](C1)C1CCCC(=O)N1C2", "note": "(stereo partly drawn)", "% Inhibition": -7, "Z score": 0.93}
{"compound": "Cc1nn(-c2nc[nH]n2)c(C)c1Cc1ccc(N)cc1", "% Inhibition": 5, "Z score": -0.61}
{"compound": "CCOc1ccc(NC(=O)Cn2nc3c(N4CCN(c5ccccc5C)CC4)nccn3c2=O)cc1", "% Inhibition": -16, "Z score": 1.55}
{"compound": "N#CC1CCC(N2C[C@@H](C#N)[C@H](c3ccccc3)C2)C1", "note": "(stereo partly drawn)", "% Inhibition": 23, "Z score": -3.06}
